Assay results from the supplement of paper PMC4604168 (melanoma cell lines).
The list shows a part of the results. Many values rest on one well or one pass, so single values are uncertain.

Assays:
Experiment in all cases: cell count relative to DMSO control; melanoma cells; higher = more viable cells
Conditions in all cases: library dose: standard library concentration; 72 h
SkMel28 = system: SkMel28
SkMel2 = system: SkMel2
SkMel30 = system: SkMel30
SkMel5 = system: SkMel5
UACC257 = system: UACC257
UACC62 = system: UACC62
WM115 = system: WM115
WM1716 = system: WM1716
WM1745 = system: WM1745
WM3526 = system: WM3526
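Further: cells treated in 1,536-well plates, then fixed and DAPI-stained, with nuclei counted from automated high-throughput microscope images.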

Row | SMILES | cell count (SkMel28) [%] | cell count (SkMel2) [%] | cell count (SkMel30) [%] | cell count (SkMel5) [%] | cell count (UACC257) [%] | cell count (UACC62) [%] | cell count (WM115) [%] | cell count (WM1716) [%] | cell count (WM1745) [%] | cell count (WM3526) [%]
1 | COc1cc([C@@H]2c3cc4c(cc3[C@@H](O[C@@H]3O[C@@H]5CO[C@@H](C)O[C@H]5[C@H](O)[C@H]3O)[C@H]3COC(=O)[C@H]23)OCO4)cc(OC)c1O [etoposide] + C[C@@H]1CCN(C(=O)CC#N)C[C@@H]1N(C)c1ncnc2[nH]ccc12 [CP690550] (first compound 0.1 µM, partner dose 5 µM) | 95.6 | 70.5 | 104 | 126 | 91.8 | 81.2 | 76.1 | 80.9 | 84.1 | 129
2 | COc1cc([C@@H]2c3cc4c(cc3[C@@H](O[C@@H]3O[C@@H]5CO[C@@H](C)O[C@H]5[C@H](O)[C@H]3O)[C@H]3COC(=O)[C@H]23)OCO4)cc(OC)c1O [etoposide] + C=C(c1ccc(C(=O)O)cc1)c1cc2c(cc1C)C(C)(C)CCC2(C)C [Bexarotene] (first compound 0.1 µM, partner dose 10 µM) | 70.2 | 73.5 | 99.5 | 83.2 | 78.5 | 51.4 | 85.8 | 64.2 | 98.1 | 93.7
3 | Cn1cnc2c(F)c(Nc3ccc(Br)cc3Cl)c(C(=O)NOCCO)cc21 [selumetinib] + O=C(O)c1ccc(-c2c[nH]c3ncc(-c4ccccc4)cc23)cc1C1CCCC1 [GSK650394] (first compound 0.075 µM, partner dose 0.8 µM) | 64 | 70.3 | 74.9 | 74.2 | 101 | 72.9 | 68.5 | 68.9 | 105 | 66.8
4 | CCN(CC)CCNC(=O)c1c(C)[nH]c(/C=C2\C(=O)Nc3ccc(F)cc32)c1C [sunitinib] + CC(C)(C)c1cnc(CSc2cnc(NC(=O)C3CCNCC3)s2)o1 [SNS-032] (first compound 2 µM, partner dose 0.05 µM) | 30.2 | 24.5 | 47.4 | 27 | 81.3 | 50.3 | 34.2 | 58.4 | 31.6 | 42.7
5 | C[C@]1(O)C[C@@H](c2nc(-c3ccc4ccc(-c5ccccc5)nc4c3)c3c(N)nccn32)C1 + Nc1cccc2c1CN(C1CCC(=O)NC1=O)C2=O [lenalidomide] (first compound 2 µM, partner dose 5 µM) | 76.6 | 81.5 | 98.9 | 87 | 76.6 | 109 | 95 | 95 | 68.2 | 86.2
6 | C[C@]1(O)C[C@@H](c2nc(-c3ccc4ccc(-c5ccccc5)nc4c3)c3c(N)nccn32)C1 + CC(=O)O[C@@]12CO[C@@H]1C[C@H](O)[C@@]1(C)C(=O)[C@H](O)C3=C(C)[C@@H](OC(=O)[C@H](O)[C@@H](NC(=O)OC(C)(C)C)c4ccccc4)C[C@@](O)([C@@H](OC(=O)c4ccccc4)[C@H]21)C3(C)C [Docetaxel] (first compound 2 µM, partner dose 0.0005 µM) | 14.8 | 15 | 34.1 | 31.6 | 63.1 | 41.3 | 27.5 | 35.7 | 31 | 34.4
7 | COc1cc([C@@H]2c3cc4c(cc3[C@@H](O[C@@H]3O[C@@H]5CO[C@@H](C)O[C@H]5[C@H](O)[C@H]3O)[C@H]3COC(=O)[C@H]23)OCO4)cc(OC)c1O [etoposide] + O=C(/C=C/c1cccnc1)NCCCCC1CCN(C(=O)c2ccccc2)CC1 [FK866] (first compound 0.1 µM, partner dose 0.05 µM) | 78.5 | 10.7 | 87.2 | 84.9 | 89.4 | 71 | 79.7 | 64.9 | 79 | 99.8
8 | C[C@]1(O)C[C@@H](c2nc(-c3ccc4ccc(-c5ccccc5)nc4c3)c3c(N)nccn32)C1 + CN(NC(=O)CC(=O)NN(C)C(=S)c1ccccc1)C(=S)c1ccccc1 [STA4783] (first compound 2 µM, partner dose 0.03 µM) | 14.7 | 49.2 | 91.4 | 53.9 | 84.5 | 51 | 22.7 | 74.6 | 20.1 | 80.4
9 | CCN(CC)CCNC(=O)c1c(C)[nH]c(/C=C2\C(=O)Nc3ccc(F)cc32)c1C [sunitinib] + NCC(=O)Nc1ccc(-n2nc(C(F)(F)F)cc2-c2ccc3c(ccc4ccccc43)c2)cc1 [OSU03012] (first compound 2 µM, partner dose 5 µM) | 20.5 | 43.6 | 36.3 | 45.9 | 75.2 | 58.3 | 57.2 | 80.8 | 37.7 | 58.1
10 | C[C@]1(O)C[C@@H](c2nc(-c3ccc4ccc(-c5ccccc5)nc4c3)c3c(N)nccn32)C1 + O=C(O)c1ccc2c(c1)nc(Nc1cccc(Cl)c1)c1ccncc12 [CX4945] (first compound 2 µM, partner dose 2 µM) | 48.7 | 59.1 | 51.3 | 63.5 | 78.3 | 69.1 | 85.9 | 90 | 49.8 | 36.8
